Here are results for 15 proteins from the supplement of paper PMC11876631.

For this data set, the target named is Escherichia coli (laboratory strain). As to the kind of experiment: barcode share on antibiotic plates over drug-free plates; higher = less susceptible. To be noted: antibiotic: gentamicin; 2× MIC (MIC 0.45 µg/mL). The method, then: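 A pool of E. coli strains, each edited to carry one amino-acid change in an essential protein, was grown for 48 h on minimal glucose agar with or without antibiotic; strain barcodes were sequenced; mean of two replicates.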

Changes are numbered by the printed parent chain. Numbers in names are those of the source. ± gives the standard deviation of the averaged measurements. Laboratory Escherichia coli strains with one amino-acid change in an essential protein, pooled on minimal glucose agar with carbenicillin or gentamicin at twice the control MIC (plus kanamycin and chloramphenicol for the plasmids), 48 h. Fold change of barcode share against drug-free plates; higher = less susceptible. Active = above 20 in both replicates (the paper's putatively resistant). '<' = one read or none on drug, '>' = one read or none on a drug-free plate. Shares are relative, so most strains fall below 1 when a few take over. Listed are strains with at least 15 reads on both drug-free plates, and hits; most hits rest on fewer reference reads. Replicate rank correlation about 0.5. Edits are read from barcodes. A value given as a limit tells only on which side of the number the result lay.

B1: obgE V201P (protein)
chain: MKFVDEASILVVAGDGGNGCVSFRREKYIPKGGPDGGDGGDGGDVWMEADENLNTLIDYRFEKSFRAERGQNGASRDCTGKRGKDVTIKVPVGTRVIDQGTGETMGDMTKHGQRLLVAKGGWHGLGNTRFKSSVNRTPRQKTNGTPGDKRELLLELMLLADVGMLGMPNAGKSTFIRAVSAAKPKVADYPFTTLVPSLGVPRMDNEKSFVVADIPGLIEGAAEGAGLGIRFLKHLERCRVLLHLIDIDPIDGTDPVENARIIISELEKYSQDLATKPRWLVFNKIDLLDKVEAEEKAKAIAEALGWEDKYYLISAASGLGVKDLCWDVMTFIIENPVVQAEEAKQPEKVEFMWDDYHRQQLEEIAEEDDEDWDDDWDEDDEEGVEFIYKR
Regarding B1, the “fold change of barcode share” value was < 0.0135.

B2: obgE V328Q (protein)
chain: B1 chain with P201V, V328Q
For B2, the “fold change of barcode share” value is < 0.0208.

B3: obgE V328A (protein)
chain: B1 chain with P201V, V328A
B3: the “fold change of barcode share” value is < 0.0163.

B4: pdxH V112A (protein)
chain: MSDNDELQQIAHLRREYTKGGLRRRDLPADPLTLFERWLSQACEAKLADPTAMVVATVDEHGQPYQRIVLLKHYDEKGMVFYTNLGSRKAHQIENNPRVSLLFPWHTLERQAMVIGKAERLSTLEVMKYFHSRPRDSQIGAWVSKQSSRISARGILESKFLELKQKFQQGEVPLPSFWGGFRVSLEQIEFWQGGEHRLHDRFLYQRENDAWKIDRLAP
With B4, the “fold change of barcode share” value was < 0.0182.

B5: orn I104W (protein)
chain: MSANENNLIWIDLEMTGLDPERDRIIEIATLVTDANLNILAEGPTIAVHQSDEQLALMDDWNVRTHTASGLVERVKASTMGDREAELATLEFLKQWVPAGKSPWCGNSIGQDRRFLFKYMPELEAYFHYRYLDVSTLKELARRWKPEILDGFTKQGTHQAMDDIRESVAELAYYREHFIKL
For the protein B5, the “fold change of barcode share” value was < 0.0226.

B6: orn F127A (protein)
chain: B5 chain with W104I, F127A
As for B6, the “fold change of barcode share” value came to 0.0185 ± 0.006.

B7: orn F127P (protein)
chain: B5 chain with W104I, F127P
For B7, the “fold change of barcode share” value was < 0.00817.

B8: panC M162A (protein)
chain: MLIIETLPLLRQQIRRLRMEGKRVALVPTMGNLHDGHMKLVDEAKARADVVVVSIFVNPMQFDRPEDLARYPRTLQEDCEKLNKRKVDLVFAPSVKEIYPNGTETHTYVDVPGLSTMLEGASRPGHFRGVSTIVSKLFNLVQPDIACFGEKDFQQLALIRKAVADMGFDIEIVGVPIMRAKDGLALSSRNGYLTAEQRKIAPGLYKVLSSIADKLQAGERDLDEIITIAGQELNEKGFRADDIQIRDADTLLEVSETSKRAVILVAAWLGDARLIDNKMVELA
For B8, the “fold change of barcode share” value was < 0.0187.

B9: plsB L347Q (protein)
chain: MSGWPRIYYKLLNLPLSILVKSKSIPADPAPELGLDTSRPIMYVLPYNSKADLLTLRAQCLAHDLPDPLEPLEIDGTLLPRYVFIHGGPRVFTYYTPKEESIKLFHDYLDLHRSNPNLDVQMVPVSVMFGRAPGREKGEVNPPLRMLNGVQKFFAVLWLGRDSFVRFSPSVSLRRMADEHGTDKTIAQKLARVARMHFARQRLAAVGPRLPARQDLFNKLLASRAIAKAVEDEARSKKISHEKAQQNAIALMEEIAANFSYEMIRLTDRILGFTWNRLYQGINVHNAERVRQLAHDGHELVYVPCHRSHMDYLLLSYVLYHQGLVPPHIAAGINLNFWPAGPIFRRQGAFFIRRTFKGNKLYSTVFREYLGELFSRGYSVEYFVEGGRSRTGRLLDPKTGTLSMTIQAMLRGGTRPITLIPIYIGYEHVMEVGTYAKELRGATKEKESLPQMLRGLSKLRNLGQGYVNFGEPMPLMTYLNQHVPDWRESIDPIEAVRPAWLTPTVNNIAADLMVRINNAGAANAMNLCCTALLASRQRSLTREQLTEQLNCYLDLMRNVPYSTDSTVPSASASELIDHALQMNKFEVEKDTIGDIIILPREQAVLMTYYRNNIAHMLVLPSLMAAIVTQHRHISRDVLMEHVNVLYPMLKAELFLRWDRDELPDVIDALANEMQRQGLITLQDDELHINPAHSRTLQLLAAGARETLQRYAITFWLLSANPSINRGTLEKESRTVAQRLSVLHGINAPEFFDKAVFSSLVLTLRDEGYISDSGDAEPAETMKVYQLLAELITSDVRLTIESATQGEG
For B9, the “fold change of barcode share” value is < 0.0213.

B10: pdxB L104A (protein)
chain: MKILVDENMPYARDLFSRLGEVTAVPGRPIPVAQLADADALMVRSVTKVNESLLAGKPIKFVGTATAGTDHVDEAWLKQAGIGFSAAPGCNAIAVVEYVFSSLAMLAERDGFSLYDRTVGIVGVGNVGRRLQARLEALGIKTLLCDPPRADRGDEGDFRSLDELVQRADILTFHTPLFKDGPYKTLHLADEKLIRSLKPGAILINACRGAVVDNTALLTCLNEGQKLSVVLDVWEGEPELNVELLKKVDIGTSHIAGYTLEGKARGTTQVFEAYSKFIGHEQHVALDTLLPAPEFGRITLHGPLDQPTLKRLVHLVYDVRRDDAPLRKVAGIPGEFDKLRKNYLERREWSSLYVICDDASAASLLCKLGFNAVHHPAR
Regarding B10, the “fold change of barcode share” value is < 0.0124.

B11: panB V199A (protein)
chain: MKPTTISLLQKYKQEKKRFATITAYDYSFAKLFADEGLNVMLVGDSLGMTVQGHDSTLPVTVADIAYHTAAVRRGAPNCLLLADLPFMAYATPEQAFENAATVMRAGANMVKIEGGEWLVETVQMLTERAVPVCGHLGLTPQSVNIFGGYKVQGRGDEAGDQLLSDALALEAAGAQLLVLECVPVELAKRITEALAIPAIGIGAGNVTDGQILVMHDAFGITGGHIPKFAKNFLAETGDIRAAVRQYMAEVESGVYPGEEHSFH
With B11, the “fold change of barcode share” value worked out at 0.00457 ± 0.0016.

B12: panB L178A (protein)
chain: B11 chain with L178A, A199V
As for B12, the “fold change of barcode share” value turned out to be 0.0107 ± 0.0042.

B13: panB M215A (protein)
chain: B11 chain with A199V, M215A
In the case of B13, the “fold change of barcode share” value is < 0.0146.

B14: panB M215Q (protein)
chain: B11 chain with A199V, M215Q
For B14, the “fold change of barcode share” value is < 0.0167.

B15: panB I200D (protein)
chain: B11 chain with A199V, I200D
In the case of B15, the “fold change of barcode share” value amounted to 0.114 ± 0.0054.
